In PubChem BioAssay AID485294 (National Center for Advancing Translational Sciences (NCATS), 2010):
Screen size: about 370,000 compounds; about 150 (0.041%) were called active. The shares of active, inactive and inconclusive entries below differ from those in the screen. Calls follow the shape of the dose curve; as a rule, active = well fitted inhibition curve with a large enough effect; inconclusive = small, poorly fitted or top-dose-only effect; inactive = flat fitted curve, though single readings scatter. No potency is given beside an inconclusive call; the fits are too rough.
Also: nearly all actives have a fitted effect of over 25% in size.
Potency is read from the fitted curve at half-maximal effect; tags tell the direction and shape of the fitted curve.

What follows are compounds tested against Beta-lactamase (Escherichia coli (strain K12)) (UniProt P00811) (assay: qHTS Inhibitors of AmpC Beta-Lactamase (assay with detergent)). Settings: AmpC hydrolysis of nitrocefin, absorbance 480 nm, 0.01% Triton; series mostly up to 114 µM.
Chain of UniProt P00811 (P00811 whole entry, looked up): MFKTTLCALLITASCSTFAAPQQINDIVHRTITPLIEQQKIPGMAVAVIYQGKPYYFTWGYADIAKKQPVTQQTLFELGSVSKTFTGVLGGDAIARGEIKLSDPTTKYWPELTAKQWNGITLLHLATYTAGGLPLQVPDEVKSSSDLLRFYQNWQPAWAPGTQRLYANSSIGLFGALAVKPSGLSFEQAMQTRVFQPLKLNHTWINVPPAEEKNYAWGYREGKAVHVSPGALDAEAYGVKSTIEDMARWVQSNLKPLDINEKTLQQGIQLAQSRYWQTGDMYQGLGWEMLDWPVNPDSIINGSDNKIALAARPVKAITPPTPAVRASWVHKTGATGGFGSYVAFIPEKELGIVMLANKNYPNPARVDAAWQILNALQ
Outline: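 20 mM phosphate pH 7.0 + 0.01% (detergent screen) or 0.0001% Triton X-100; 5.3 nM AmpC reagent; cpd preinc 15 min RT; nitrocefin (800 uM stock) to start; A480 q20 s × 4 min; Activity was normalised to no-enzyme and no-compound control wells.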
For `O=C(NCCc1ccc(Cl)cc1)c1ccc2c(c1)N(Cc1ccc(F)cc1Cl)C(=O)CS2`, the Potency was “inactive”.
`COC(=O)CN(c1cc(OC)ccc1OC)S(=O)(=O)c1ccc(OC)c(OC)c1` was tested, and the Potency was inconclusive [inhibitor, full curve, poor fit].
For `Cc1c2cnn(CC(=O)N3CCCCC3)c(=O)c2c(C)n1Cc1ccc(Cl)cc1`, the Potency was “inactive”.
With `O=C(COC(=O)c1ccccc1Nc1ccc(SC(F)F)cc1)NCc1ccco1` the Potency was “inactive”.
`Cc1ccc(NC(=O)c2ccc3c(=O)n4nc(Nc5ccccc5C)sc4nc3c2)cc1C` was tested, and the Potency was “inactive”.
`Cn1cc(S(=O)(=O)Nc2ccc3c(c2)OCCO3)cn1` was tested, and the Potency was “inactive”.
With `Cc1ccc(S(=O)(=O)N(C)c2ccc(OC(C)C(=O)N3CCCC3)cc2)cc1C` (stereo not drawn) the Potency was inconclusive [inhibitor, full curve, poor fit].
In the case of `CC(=O)N1c2ccccc2NC2=C(C(=O)CCC2)C1c1ccco1` (stereo not drawn), the Potency is reported as “inactive”.
In the case of `O=C(NC1=NCCS1)c1ccccc1OCc1ccccc1Cl`, the Potency is reported as “inactive”.
With `CCOC(=O)C1(Cc2ccc(OC)cc2)CCN(C(=O)CN2CCCCC2=O)CC1` the Potency was “inactive”.
For `C=CCNc1ncnc2c1cnn2-c1ccc(C)cc1C`, the Potency was inconclusive [inhibitor, full curve, poor fit].
For `CCN(CC)c1ccc(N=Nc2ncn[nH]2)cc1`, the Potency was “inactive”.
`N#Cc1nc(-c2ccc(F)cc2)oc1NCc1cccc2c1OCO2` was tested, and the Potency was “inactive”.
In the case of `Cc1nnc(SC(C)C(=O)Nc2ncc(Cl)cc2Cl)n1Cc1ccccc1` (stereo not drawn), the Potency is reported as “inactive”.
`Cc1ccccc1OCC(=O)Nc1sc(C(=O)Nc2cccc(C)c2C)c(C)c1C#N` was tested, and the Potency was inconclusive [inhibitor, partial curve, poor fit].
`COc1cc(C(=O)OCC(=O)NC2CCCC2)cc(NC(=O)c2ccco2)c1OC` was tested, and the Potency was inconclusive [inhibitor, full curve, poor fit].
With `CCOc1ccccc1NC(=O)C1CCN(S(=O)(=O)Cc2ccccc2)CC1` the Potency was “inactive”.
In the case of `Cn1c2ccccc2c2c(C(=O)O)cn(C3CCCC3)c(=O)c21`, the Potency is reported as inconclusive [inhibitor, full curve, poor fit].
In the case of `CN(C)CCn1nnnc1SCC1=C(C(=O)O)N2C(=O)[C@@H](NC(=O)Cc3csc(N)n3)[C@H]2SC1`, the Potency is reported as inconclusive [inhibitor, partial curve, poor fit].
With `CCOc1ccc(N(CC)C(=O)CCNC(=O)Cn2ccc3ccccc3c2=O)cc1` the Potency was inconclusive [inhibitor, partial curve, poor fit].
`Fc1ccccc1N1CCN(Cc2ccc3c(c2)OCO3)CC1` was tested, and the Potency was inconclusive [inhibitor, full curve, poor fit].
`COC(=O)c1ccc(N2CCS(=O)(=O)CC2)cc1` was tested, and the Potency was inconclusive [inhibitor, full curve, poor fit].
`O=C(Nc1ccc(F)cc1)c1cccc(N2CCCS2(=O)=O)c1` was tested, and the Potency was “inactive”.
For `COC(=O)c1sc(-c2ccccc2)cc1NC(=O)C1CC1`, the Potency was “inactive”.
In the case of `COc1cc(CNCC(O)c2ccccc2)ccc1OCc1ccc(Cl)nc1` (stereo not drawn), the Potency is reported as “inactive”.
For `CCOc1cc2[nH]c(=O)n(CC3CCC(C(=O)NCCCOC)CC3)c(=O)c2cc1OCC` (stereo not drawn), the Potency was “inactive”.
In the case of `CCn1c(SCC(=O)Nc2nccs2)nnc1-c1cccnc1`, the Potency is reported as “inactive”.
In the case of `O=C(CN1C(=O)NC2(CCCCCCC2)C1=O)N1CCOCC1`, the Potency is reported as inconclusive [inhibitor, full curve, poor fit].
With `CC(=O)c1c(C)c(C)c2n1CCn1c(C)ccc1-2` the Potency was “inactive”.
For `CCc1nc2ccc(C(=O)NCc3ccc(C)o3)cc2nc1CC`, the Potency was “inactive”.
For `Cc1c(C(=O)N2CCCCC2)oc2ccc(Br)cc12`, the Potency was inconclusive [inhibitor, full curve, poor fit].
With `O=C(Nc1ccncc1)C1c2ccccc2Oc2ccccc21` the Potency was “inactive”.
For `COc1ccc(C2=CSC3=NCCN23)cc1F`, the Potency was inconclusive [inhibitor, partial curve, poor fit].
With `CC(=O)N1CCN(S(=O)(=O)c2cccc(C(=O)NNC(=O)Cn3ccc(C(F)(F)F)n3)c2)CC1` the Potency was inconclusive [inhibitor, partial curve, poor fit].
With `COc1ccc(C(=O)CC(=O)c2ccccc2O)cc1` the Potency was inconclusive [inhibitor, full curve, poor fit].
`O=C(NCCCN1CCOCC1)c1cc(S(=O)(=O)N2CCN(c3ccccc3)CC2)ccc1Cl` was tested, and the Potency was inconclusive [inhibitor, partial curve].
`Cc1ccc(N2C(=O)[C@@H]3CSC(c4ccc(C(F)(F)F)cc4)N3C2=O)cc1` (stereo partly drawn) was tested, and the Potency was “inactive”.
`CC(C)(C)c1ccc(/C=N/OCC(=O)NCc2ccc(F)cc2)cc1` was tested, and the Potency was inconclusive [inhibitor, full curve, poor fit].
For `CSCCC(NC(=O)C1CCCCC1)C(=O)Nc1ccc(F)c(Cl)c1` (stereo not drawn), the Potency was “inactive”.
For `COC(=O)c1sc2cc([N+](=O)[O-])cc(SCC(C)C)c2c1N`, the Potency was inconclusive [inhibitor, full curve, poor fit].
For `C=CCn1cnnc1SCC(=O)NCC1COc2ccccc2O1` (stereo not drawn), the Potency was inconclusive [inhibitor, partial curve, poor fit].
For `CC(=O)Nc1ccc(NC(=O)C(C)OC(=O)c2ccc(N(C)C)cc2)cc1` (stereo not drawn), the Potency was inconclusive [inhibitor, full curve, poor fit].
For `O=c1[nH]c2cc(C(F)(F)F)ccc2n1-c1cc(C(F)(F)F)ccc1O`, the Potency was inconclusive [inhibitor, full curve, poor fit].
With `Cc1cc(C)c2cc(CN(CCO)Cc3nnnn3Cc3ccccc3)c(=O)[nH]c2c1` the Potency was inconclusive [inhibitor, partial curve, poor fit].
In the case of `CCN(CC)CCNC(=O)c1ccc2c(c1)ncn2C1CCCCC1`, the Potency is reported as “inactive”.
In the case of `COc1ccc(N(C(=O)c2ccccc2C)S(=O)(=O)c2ccc3c(c2)n(C)c(=O)n3C)cc1`, the Potency is reported as “inactive”.
With `O=C(NC1CCCCC1)c1cc2nc3c(c(C(F)(F)F)n2n1)CCCC3` the Potency was inconclusive [inhibitor, single point].
`O=C(/C=C/c1ccco1)N(Cc1cccc(Cl)c1)C1CCS(=O)(=O)C1` (stereo not drawn) was tested, and the Potency was inconclusive [inhibitor, partial curve, poor fit].
`CCn1cc(S(=O)(=O)Nc2ccc(Cl)cc2F)cn1` was tested, and the Potency was inconclusive [inhibitor, partial curve].
With `Cc1nc(Nc2cccc(C(F)(F)F)c2)nc2c1C(=O)CC(C)C2` (stereo not drawn) the Potency was inconclusive [inhibitor, full curve].
With `O/N=C(/CCc1ccccc1)c1ccc2c(c1)OCCO2` the Potency was “inactive”.
For `Cc1sc2nc(CN3CCN(S(=O)(=O)c4cccc5nonc45)CC3)[nH]c(=O)c2c1C`, the Potency was inconclusive [inhibitor, single point].
In the case of `CCOC(=O)C(C)Sc1nnc(CNC(=O)c2ccc(OC)cc2)n1C1CCCCC1` (stereo not drawn), the Potency is reported as inconclusive [inhibitor, partial curve, poor fit].
With `COc1ccc(CNC(=O)C2CCCN(S(=O)(=O)c3cc(C)ccc3OC)C2)cc1` (stereo not drawn) the Potency was inconclusive [inhibitor, single point].
For `Cc1c(C(=O)N2CCC(C(N)=O)CC2)oc2ccc(Br)cc12`, the Potency was inconclusive [inhibitor, partial curve, poor fit].
With `Cc1cccc(C)c1N/C=C/c1onc(C)c1[N+](=O)[O-]` the Potency was “inactive”.
`Cc1ccc(CCNC(=O)CCCn2nc(C)c3c(C)n(-c4ccc(C)cc4)nc3c2=O)cc1` was tested, and the Potency was inconclusive [inhibitor, single point].
`COc1ccc(C(=O)OCc2csc(C)n2)c(O)c1` was tested, and the Potency was inconclusive [inhibitor, full curve, poor fit].
With `CC1CCN(C(C(=O)O)c2ccccc2)CC1` (stereo not drawn) the Potency was “inactive”.
For `CCc1ccc(OCC2c3cc(OC)c(OC)cc3CCN2C(=O)Cc2ccc(OC)c(OC)c2)cc1` (stereo not drawn), the Potency was “inactive”.
`COc1cc2c(cc1NC(=O)C(C)Oc1ccc(Cl)cc1Cl)oc1ccccc12` (stereo not drawn) was tested, and the Potency was “inactive”.
`CC(SC1=NCCS1)C(=O)Nc1nnc(-c2ccc(F)cc2)s1` (stereo not drawn) was tested, and the Potency was inconclusive [inhibitor, full curve, poor fit].
With `CCN(CC)c1ccc(/C=N/NC(=O)c2cccc(S(=O)(=O)N3CCOCC3)c2)cc1` the Potency was “inactive”.
For `CCc1ccc(C(=O)Nc2cc(C)ccc2F)s1`, the Potency was “inactive”.
For `Cc1ccc(NS(=O)(=O)c2ccc(NC(=O)C(C)Sc3ccc(Cl)cc3)cc2)c(C)c1` (stereo not drawn), the Potency was inconclusive [inhibitor, partial curve, poor fit].
In the case of `CC(=O)NCC(=O)NC1CCCc2c1cnn2-c1ccc(C(C)(C)C)cc1` (stereo not drawn), the Potency is reported as “inactive”.
With `CCC(NC(=O)c1ccccc1NC(=O)c1ccccc1)C(=O)OC` (stereo not drawn) the Potency was “inactive”.
With `CCOc1ccc(C(=O)C(CCC(CN(C)C)C(=O)c2ccc(OCC)cc2)CN(C)C)cc1` (stereo not drawn) the Potency was “inactive”.
In the case of `O=C(c1cc2ccccc2o1)c1nc2c(n1O)CCCCC2`, the Potency is reported as “inactive”.
For `O=c1[nH]nc2n1CCCCC2`, the Potency was inconclusive [inhibitor, partial curve, poor fit].
In the case of `CCc1ccc(NC(=S)N(CCCN2CCOCC2)Cc2ccccn2)cc1`, the Potency is reported as inconclusive [inhibitor, partial curve, poor fit].
For `COc1ccccc1NC(=O)Nc1nc(CC(=O)Nc2ccc(OC)c(OC)c2)cs1`, the Potency was inconclusive [inhibitor, partial curve, poor fit].
In the case of `COc1ccc(-c2noc(CSc3nnc(-c4ccncc4)n3-c3cccc(C)c3)n2)cc1OC`, the Potency is reported as “inactive”.
